The supplement of paper PMC11417369
This is one part of the list.

The sequences below were run on PfHDP1 homeodomain (GST-tagged) (assay: gcPBM binding intensity (ln(normalized median fluorescence intensity)); higher = stronger DNA binding).
Outline: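 An Agilent 4 × 180k array of primer-extended double-stranded 36-bp intergenic genomic probes, with negative controls, was incubated for 1 h with GST-tagged P. falciparum DNA-binding domains expressed in E. coli. Alexa488 anti-GST antibody detected bound protein, scanned at 488 nm. Binding intensity is the highest Masliner-normalised natural-log median intensity across replicate spots of either probe orientation.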

| Sequence | gcPBM binding intensity (ln) |
| --- | --- |
| CTGAATTTTTATAACTGTACATATTTGATATAAAAA [XGTACX_site183] | 6.07 |
| ATATTGCTTATTTGATGTACGAATACACTAGTATTA [XGTACX_site4536] | 6.35 |
| TATCTGTATATGTGTACACATATTCTTAACTCACGC [CACACA_site4255] | 7.08 |
| ATACTAAATGAACACACACACATATAGATTTATAAC [CACACA_site6200] | 6.87 |
| AAAATTATATGTAATTGTACGGAATTATATACGCAA [XGTACX_site2048] | 6.41 |
| TTTTTTAAAAATATTATCATCGTAACAAGAAATCGA [CACACA_negctrl_site1111] | 6.49 |
| TCCTGTGGTTATATAACACACATTATTGCTTATAAG [CACACA_site6823] | 6.5 |
| AATACATACATATATACATGCATACATATAAATATA [TGCATGCA_site674] | 6.53 |
| GAACAAAAAAAAAATTGTACACAATTTTTTAAAATT [XGTACX_site4455] | 6.01 |
| ATGATTTATTATTATACACACAAAAAAAAAAAAGGA [CACACA_site264] | 6.73 |
| AAACAAAAAAAATAAGCACACATATATATATATATA [CACACA_site8173] | 9.4 |
| GCTTATAAGATATGCACACACAACACTTACAAAAAA [CACACA_site817] | 9.27 |
| TATATATATATACATACATATAAAGTTACATAAACA [CACACA_negctrl_site432] | 8.9 |
| TAGATTTTTTTACATTGTACATATTTTTTCTTATAG [XGTACX_site293] | 6.63 |
| GAACAAACAAAGAAAGAACACACATACACAATATAC [CACACA_site8918] | 7.16 |
| ATATATGGGTAGTATACACACTGTATATTTAGGAAT [CACACA_site7357] | 6.75 |
| GTATGAAAAAAATATGCATGCTAAATAATAAATGTT [TGCATGCA_site352] | 6.52 |
| AATATTTTAAAAAAATGTACTTTTAACCCTTATTGG [XGTACX_site3490] | 5.87 |
| TTTTTTAAAATATAAAATATGTACAAATATGTTGAA [GTGCAC_negctrl_site379] | 6.67 |
| TATAAAATATAAATTTGTACATATAAAATATTTTAT [XGTACX_site7462] | 6.37 |
| TAATAGTTATAAAATACACACCAGGCATGATAAATG [CACACA_site4335] | 6.22 |
| ATATCGCACGTTTGAAGTACATAAAAACGATTAATA [XGTACX_site7684] | 6.47 |
| CACCAATTCATATGCACACACATCTGCATATTATAG [CACACA_site6925] | 10.3 |

| Sequence | gcPBM binding intensity (ln) |
| --- | --- |
| TTATATAAATATAAGGTGCTGGGGTTTATTACATAT [GTGCAC_site9909] | 6.93 |
| CATATTATTTATATTTGTACACAGCGATATGAAATA [XGTACX_site7717] | 6.69 |
| CTTACATAAAATATCACACACATAAAAAAACAATAT [CACACA_site1901] | 7.12 |
| ATTTCGTAATTTATATCACACACATATATATATAAT [CACACA_site9021] | 6.84 |
| ATCATTTTTATAAATTGTACAAATATTTTTTATACA [XGTACX_site7551] | 6.74 |
| TTTTGAAGTAATACATGTACTTAAATTACTAAAAAA [XGTACX_site1955] | 6.04 |
| ACTTTGCGTTAAAAGAGTACATAATATTTTTTTTTT [XGTACX_site7533] | 6.14 |
| AAACTAACTCTAACATGTACATATATATATATATAT [XGTACX_site6949] | 9.35 |
| GCTTATTTTAATTCTTGTACTTATTTATATACAAAT [XGTACX_site2099] | 7.01 |
| TTGAAAATTCTTAAGGCACACACATATATAATATAT [CACACA_site8088] | 6.75 |
| TAATGGTGTTCATGTGGTACACTTTATAAATTGGCA [XGTACX_site729] | 6.41 |
| TATATATATATGTGTACACAAAAAATATTATATTAT [CACACA_site5505] | 8.81 |
| TTTTTAATCCTTTGCGCATGTAAAATTATATATTTT [TGCATGCA_site306] | 7.54 |
| ACATAATTATTATGCACACATATTTTTATGTATTTA [CACACA_site698] | 10.2 |
| ATTCTATTTTTAAGTACACACATATATATATATATA [CACACA_site3658] | 9.43 |
| ATACTTTATTAATATTGTACAAAATAAGAAAAAAAA [XGTACX_site310] | 6.41 |
| CACAACAGGGTTGAGGTGCGTAAAAATAGTAGAATA [GTGCAC_site9523] | 6.55 |
| ACATAAAAATTATGCACACTTAATAAAGCGAAATGT [CACACA_site3183] | 10.3 |
| AAAACAAAAGAATTCACACATATATATATATATATA [CACACA_site4777] | 9.44 |
| CAAGGAACCAGACACACACACATAAATGTATATATA [CACACA_site752] | 6.56 |
| TGATTATTATAATTTAGTACATAATATTTTATATAA [XGTACX_site6125] | 6.1 |
| ATATATGGAAAGAGTAGTACTATTATAGGGGTGTTA [XGTACX_site6785] | 6.91 |
| TTAAACGTACATAATACACACACATGTAGACATATA [CACACA_site8635] | 6.8 |

| Sequence | gcPBM binding intensity (ln) |
| --- | --- |
| AAAATTAACGAGTGCACACATATTTAGATAAAATAC [CACACA_site2936] | 11.3 |
| AAAATTAAACATACATCACACATGCATTATATTATG [CACACA_site5517] | 6.63 |
| TCATATAAGTTTAGTAGTACTAAAAGTTAGAGAGAA [XGTACX_site3430] | 6.78 |
| AAATAAGAGCGTAGCACACACGCATTTTATAAATGG [CACACA_site4571] | 6.37 |
| AAATCAAATTTTTAGAGTACTTAAGTTTTCTATATA [XGTACX_site7827] | 6.11 |
| ATCACAAAAAAGTTCATACACACAACCTATTTATAT [CACACA_site2888] | 6.59 |
| TCCCCATATGTTTTGTGTACATATATATTTTTTTGT [XGTACX_site75] | 7.27 |
| TAATATATTAATATATGTACATATTTATATATCTAC [XGTACX_site7117] | 6.47 |
| AAAAAACTTCACATATGTACTTAAAAAAAATTAAAA [XGTACX_site2368] | 6.18 |
| GAACATTACGTAAATAAATAAATAAAAATAAATACA [XGTACX_negctrl_site25] | 6.46 |
| ATAAAGTCTATATTATGTACATATAATATAAATATT [XGTACX_site6703] | 6.22 |
| CAAAAAAAAATCTGTAGTACTTATTAATATTGCTGT [XGTACX_site4767] | 6.17 |
| TATTGTCTTGTATATGCATGTAGACCAAATATGTAA [TGCATGCA_site9] | 6.42 |
| GGAATAACCAGACACACACACACATATAAATATGTA [CACACA_site7632] | 6.59 |
| TAAATACAAGAACTGACACACATACATACTACATTT [CACACA_site5561] | 6.61 |
| GGAAAAAAATAAAATAAGTATTTTACATACATATTG [TGCATGCA_negctrl_site10] | 5.87 |
| ATATCATTTTATTTGTGTACTTAAAAAGTTGCAATG [XGTACX_site4099] | 9.18 |
| AAAACTTTTTTAACAGAAAAATAGGGATACAATATA [CACACA_negctrl_site1708] | 6.83 |
| ATAACATTCAAAAAATGTACAAACATATGAATAAAT [XGTACX_site7013] | 6.52 |
| ATTTATTTTAAATAAGTGCAAAATGGTTATAAATAA | 8.98 |
| ATGTACTATAGGCACACACACTCACATATATATATA [CACACA_site5745] | 9.01 |
| AAAATTTCAATAAATACACACATATAAATATAGATT [CACACA_site6893] | 6.37 |
| ATAAATATTTTGTAAGCATGCTTTTAAAAAAAGAAA [TGCATGCA_site572] | 6.96 |

| Sequence | gcPBM binding intensity (ln) |
| --- | --- |
| AAATAGTTGTTAAAGGTGCACAATATGGATATAAGA | 9.86 |
| TGAAAATATATAACGCGTACAAAAAGGAAATACAAT [XGTACX_site3534] | 7.03 |
| TTTTTTTTTTTTTTTGCATGTTGAAAATAAAATTAT [TGCATGCA_site86] | 6.48 |
| TGTTCAGTATTGCACACACACAACAAAATAAAAAAA [CACACA_site6314] | 10.4 |
| ATATATATATATATATGTACTTAATGTTATTATATA [XGTACX_site4508] | 9.59 |
| GAAATGTGATAATATACACACACGCATATATATATA [CACACA_site4332] | 8.82 |
| ATTATATATATATTATGTACATATATTGAAGTGGAT [XGTACX_site5916] | 6.99 |
| ACGGATTAAAAAATGTGTACGCACAAAAAAAAAAAT [XGTACX_site8259] | 7.14 |
| TACGAAATCATATGTACACACACATATATATATATA [CACACA_site5216] | 9.26 |
| TAAAATTAAACAAAAAAAAAGAAAAAAAAAAAAAAG [CACACA_negctrl_site1098] | 5.92 |
| CTCCATATTAGACACACACACAAATGAAAAAAATAT [CACACA_site7420] | 6.99 |
| TGAACATACATCAAAAGTACAAACTCGCATGTTATA [XGTACX_site3320] | 6.35 |
| TACCTATACAGACACACACACACACGCCCACAAAAA [CACACA_site6375] | 6.97 |
| TTTTTATATTTATATAAATAAAAAAATAACAAAATG [XGTACX_negctrl_site231] | 6.69 |
| AATATTCTATATGATACATGCATGATGGAATAAAAA [TGCATGCA_site980] | 7.29 |
| AATGTAGACACATATGTACACACATATATATGTATA [CACACA_site9014] | 6.68 |
| TTTTGGTATACGTAATTATATAATATGTTAATCAAT [CACACA_negctrl_site645] | 6.44 |
| CCGCCATTGTACCATCCACACACATATATATATGTA [CACACA_site8866] | 7.38 |
| TATACATATATATATATATATAGATATATTCACGTG [XGTACX_negctrl_site265] | 7 |
| TTTTTAAAAAGTAACACACACTCTTATATATAATGA [CACACA_site3618] | 6.62 |
